According to PubChem BioAssay AID485294 (National Center for Advancing Translational Sciences (NCATS), 2010):
Hit rate of the full screen: of about 370,000 compounds, about 150 (0.041%) were called active. Inconclusive means that the source gave no clear call. Such entries were picked first, then a sample of the others. Calls follow the shape of the dose curve; as a rule, active = well fitted inhibition curve with a large enough effect; inconclusive = small, poorly fitted or top-dose-only effect; inactive = flat fitted curve, though single readings scatter. Potencies of inconclusive entries are left out as doubtful fits.

Target: Beta-lactamase (Escherichia coli (strain K12)) (UniProt P00811)
Test: qHTS Inhibitors of AmpC Beta-Lactamase (assay with detergent); also: nearly all actives have a fitted effect of over 25% in size;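 as to activity change, negative = inhibition: 0% = no-compound wells and -100% = no-enzyme wells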
Conditions: AmpC hydrolysis of nitrocefin, absorbance 480 nm, 0.01% Triton; activity change, negative = inhibition: at 114 µM (top of the series)
In short: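 AmpC (5.3 nM in the dispensed reagent) in 20 mM phosphate pH 7.0 with 0.01% (detergent screen) or 0.0001% Triton X-100 was preincubated with compounds for 15 min at room temperature. Nitrocefin was then added from an 800 uM solution, and hydrolysis was followed at 480 nm.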
Potency is read from the fitted curve at half-maximal effect; tags tell the direction and shape of the fitted curve.

Sequence of UniProt P00811 (P00811 whole entry, looked up): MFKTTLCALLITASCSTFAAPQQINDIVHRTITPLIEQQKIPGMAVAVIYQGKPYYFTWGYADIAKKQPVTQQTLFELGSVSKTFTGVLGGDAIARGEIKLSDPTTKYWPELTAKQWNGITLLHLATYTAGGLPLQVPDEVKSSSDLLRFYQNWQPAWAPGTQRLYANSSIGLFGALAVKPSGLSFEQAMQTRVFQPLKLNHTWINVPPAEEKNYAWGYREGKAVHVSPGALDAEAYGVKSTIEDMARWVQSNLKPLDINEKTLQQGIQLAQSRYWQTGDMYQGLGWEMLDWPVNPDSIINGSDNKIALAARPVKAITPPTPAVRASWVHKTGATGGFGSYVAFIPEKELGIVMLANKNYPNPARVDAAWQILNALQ

SMILES	activity change, negative = inhibition	Potency
O=C(Cc1ccccc1)N/N=C/c1ccc(OC(=O)/C=C\c2ccco2)cc1	inactive: 4.83%	–
O=S(=O)(c1cc(F)ccc1F)N1CCN(c2ncccn2)CC1	–	inconclusive [inhibitor, full curve, poor fit]
CC(C)(C)OC(=O)N1CCC(c2c(C(=O)N3CCN(C(=O)c4ccco4)CC3)cnn2-c2ccc(F)cc2F)CC1	–	inactive
Cc1ccc(C2=[N+]([O-])C3(CCCCC/C3=N\NC(N)=O)N(O)C2(C)C)o1 (stereo not drawn)	–	inconclusive [inhibitor, full curve, poor fit]
Cc1ccc(-c2cnn(-c3cccc([N+](=O)[O-])c3)c2N)cc1	–	inconclusive [inhibitor, partial curve, poor fit]
Cc1ccc(-c2csc(NC(=O)c3ccno3)n2)cc1	–	inconclusive [inhibitor, full curve, poor fit]
c1ccc(-c2nc(-c3ccco3)cs2)nc1	–	inconclusive [inhibitor, partial curve, poor fit]
COc1ccc(N2CCN(C3CCN(S(=O)(=O)c4ccc(F)cc4)CC3)CC2)cc1	–	inconclusive [inhibitor, partial curve, poor fit]
O=C(NC1CCCCC1)n1c(=O)oc2ccccc21	–	inconclusive [inhibitor, full curve, poor fit]
Cc1ccc(NC(=O)c2ccc(OCC3CCCO3)cc2)cc1 (stereo not drawn)	–	inconclusive [inhibitor, full curve, poor fit]
COc1ccc(CSc2nnc(N)s2)cc1F	inactive: 1.08%	–
Cc1ccc(C)c(NC(=O)c2ccccc2O)c1	–	inconclusive [inhibitor, full curve, poor fit]
CC(C)COC(=O)N1CCN(S(=O)(=O)c2ccc3c(c2)CCC3)CC1	–	inconclusive [inhibitor, full curve, poor fit]
CCN(C(=O)COC(=O)CNC(=O)c1cccc(C)c1)c1c(N)n(Cc2ccccc2)c(=O)[nH]c1=O	–	inconclusive [inhibitor, full curve]
COc1cccc(-c2nnc(SCc3ccccn3)n2C)c1	–	inconclusive [inhibitor, full curve]
COc1ccccc1-c1nc(C#N)c(N2CCN(C(c3ccccc3)c3ccccc3)CC2)o1	–	inconclusive [inhibitor, full curve, poor fit]
O=C(Nc1cnccn1)c1csc2ccccc12	–	inconclusive [inhibitor, full curve]
Fc1ccc(CN2CCN(C(c3ccccc3)c3ccccc3)CC2)cc1	–	inconclusive [inhibitor, full curve, poor fit]
Cc1ccc2c(=O)c(C(=O)c3ccc(F)cc3)cn(CC(=O)NCc3ccccc3)c2n1	inactive: 28.9%	–
COc1ccc(N2CCN(C(=O)c3ccc(C)c(NC(=O)c4nsc5ccccc45)c3)CC2)cc1	inactive: -0.635%	–
COC(=O)c1ccc(C(=O)OC)c(NC(=O)COC(=O)C23CC4CC(CC(O)(C4)C2)C3)c1	–	inconclusive [inhibitor, full curve]
COc1ccc(-n2nnnc2SCC(=O)N2C(C)CCCC2C)c(OC)c1 (stereo not drawn)	inactive: -7.25%	–
CC(=Nc1ccccc1N)c1c(O)n(C)c(=O)[nH]c1=O	–	inconclusive [inhibitor, full curve, poor fit]

SMILES	activity change, negative = inhibition	Potency
O=P(O)(Oc1ccccc1)OC(c1ccccc1)C(F)(F)F (stereo not drawn)	–	inconclusive [inhibitor, single point]
Cc1ccc(SCCN2CCC(NC(=O)OCc3ccccc3)CCC2=O)cc1 (stereo not drawn)	–	inconclusive [inhibitor, full curve, poor fit]
Cn1c(CC(=O)Nc2ccccc2)cc2ccccc21	inactive: -2.67%	–
CN(C)S(=O)(=O)c1cccc(NC(=S)NC(=O)C2CCCCC2)c1	inactive: -7.73%	–
COc1cc2cc(NC(C)=O)cc(NCc3ccccc3)c2cc1OC	inactive: -9.27%	–
Cc1nc(-c2ccc(C(F)(F)F)cc2)sc1C(=O)NN	inactive: 2.59%	–
COc1ccc(S(=O)(=O)N(C)CC(=O)Nc2cccc(C(C)=O)c2)cc1	–	inconclusive [inhibitor, single point]
O=C(Nc1cc(Cl)cc(Cl)c1)c1ccc(F)c(S(=O)(=O)NC2CCCC2)c1	inactive: 11.3%	–
N#Cc1nc(-c2ccco2)oc1N1CCN(Cc2ccccc2)CC1	–	inconclusive [inhibitor, single point]
O=C(CSc1nnc(C2CC2)n1-c1ccccc1)NCCc1ccccc1	–	inconclusive [inhibitor, partial curve, poor fit]
Cc1cccc(CN2C(=O)c3ccccc3Sc3ccc(C(=O)N4CCCC4)cc32)c1	inactive: 9.33%	–
Clc1ccc2oc(-c3ccccn3)nc2c1	–	inconclusive [inhibitor, full curve, poor fit]
O=C(CCl)Nc1ccccc1C(=O)c1ccccc1	–	inconclusive [inhibitor, full curve, poor fit]
Cc1cc(S(=O)(=O)Nc2ccc(N3CCOCC3)cc2)ccc1Br	–	inconclusive [inhibitor, partial curve]
Cn1c(=O)[nH]c(=O)c2[nH]c(N(Cc3ccccc3)Cc3ccccc3)nc21	–	inconclusive [inhibitor, full curve]
Cc1cc(C(=O)CN2CCC(C)CC2)c(C)n1-c1ccc(F)cc1	inactive: -1.78%	–
CN(C)S(=O)(=O)Oc1cc(Cl)ccc1C(=O)Nc1ccc(F)cc1F	inactive: 0.636%	–
c1ccc(COc2ccc(OCCCCN3CCCCC3)cc2)cc1	inactive: 3.07%	–
COc1ccc(CCNC(=O)c2cccc(S(=O)(=O)N3CCCC3)c2)cc1OC	–	inconclusive [inhibitor, full curve, poor fit]
CCOC(=O)c1c(C)oc2nc(C)nc(NCc3ccccc3Cl)c12	inactive: 19.1%	–
COc1cc(N=C2C(=O)N3CCCc4cccc2c43)cc(OC)c1	–	inconclusive [inhibitor, full curve, poor fit]
C/C(=N\NC(=O)c1nn(C)cc1Br)c1ccc(NC(=O)c2ccncc2)cc1	–	inconclusive [inhibitor, full curve, poor fit]
COC(=O)C1=C(C)N(C(C)C)C(=O)C1(NC(C)=O)C(F)(F)F (stereo not drawn)	–	inconclusive [inhibitor, full curve, poor fit]

SMILES	activity change, negative = inhibition	Potency
Cc1cc(Nc2ccc(C)c(C)c2)n2cnnc2n1	inactive: 3.42%	–
Cc1cc(C(=O)OCc2nnc(-c3ccccc3)o2)c(C)n1-c1ccccc1	–	inconclusive [inhibitor, full curve]
COc1ccc(C)cc1S(=O)(=O)NC1CCCCC1	–	inconclusive [inhibitor, partial curve]
Cc1ccc(S(=O)(=O)c2cnc(SCC(=O)Nc3ccc4c(c3)OCCO4)[nH]c2=O)cc1	inactive: 18.5%	–
CC(Nc1nc(=S)nc(Nc2ccc(F)cc2)[nH]1)c1ccccc1 (stereo not drawn)	–	inconclusive [inhibitor, partial curve, poor fit]
CC1(NC(=O)Cc2ccc(S(=O)(=O)N3CCOCC3)s2)CCS(=O)(=O)C1 (stereo not drawn)	–	inconclusive [inhibitor, partial curve]
O=C(/C=C/c1ccccc1)NC(=S)Nc1ccccc1O	inactive: -1.7%	–
COc1cccc(-c2nc3n(n2)C(c2ccc4c(c2)OCO4)C(C(N)=O)=C(C)N3)c1 (stereo not drawn)	–	inconclusive [inhibitor, full curve]
Fc1ccccc1N1CCN(c2ncnc3[nH]ncc23)CC1	–	inconclusive [inhibitor, full curve]
Cn1ncc2c(NNC(=O)c3ccc(Cl)cc3Cl)ncnc21	–	inconclusive [inhibitor, full curve, poor fit]
CCOc1ccc(-n2cc(C(=O)Nc3cccc(OC)c3)c3cc(OC)c(OC)cc3c2=O)cc1	–	inconclusive [inhibitor, partial curve]
Cc1ccc2nc3c(c(C(=O)O)c2c1)CCC3	–	inconclusive [inhibitor, partial curve, poor fit]
CC1=CC(C)(C)Nc2ccc(OC(=O)CN3C(=O)c4cccc5cccc(c45)C3=O)cc21	inactive: 3.64%	–
Nc1nc(-c2ccccc2)cc(-c2ccccc2O)n1	inactive: 3.32%	–
CCc1ccc(-c2nc(CN3CCC(C(=O)NCc4ccc(F)cc4)CC3)c(C)o2)cc1	inactive: -8.31%	–
CCC(C)c1ccccc1NC(=O)COC(=O)CCc1cc(OC)c(OC)c(OC)c1 (stereo not drawn)	–	inconclusive [inhibitor, full curve]
CN(C1CCCCC1)S(=O)(=O)c1ccc2c(c1)c(=O)c(C(=O)NCCc1ccc(Cl)cc1)cn2C	inactive: -1.01%	–
CN(C(=O)COC(=O)C1COc2ccccc2O1)c1c(N)n(Cc2ccccc2)c(=O)[nH]c1=O (stereo not drawn)	–	inconclusive [inhibitor, single point]
Cc1oc(-c2ccccc2F)nc1CS(=O)(=O)CC(=O)NCCCN1CCc2ccccc2C1	–	inconclusive [inhibitor, partial curve, poor fit]
CCOC(=O)C1=C(COC(=O)C2CC(=O)N(c3ccc(C)cc3)C2)NC(=O)NC1C (stereo not drawn)	–	inconclusive [inhibitor, full curve, poor fit]
O=C(Nc1nnc(-c2ccccc2)o1)Nc1ccc(F)cc1F	–	inconclusive [inhibitor, single point]
COc1ccc(Cn2nnnc2C(c2cc3cc(C)ccc3[nH]c2=O)N2CCOCC2)cc1 (stereo not drawn)	–	inconclusive [inhibitor, full curve, poor fit]
